Measurements from PubChem BioAssay AID1030 (National Center for Advancing Translational Sciences (NCATS), 2008).
Screen size: about 220,000 compounds; about 16,000 (7.3%) were called active. The shares of active, inactive and inconclusive entries below differ from those in the screen. Calls follow the shape of the dose curve; as a rule, active = well fitted inhibition curve with a large enough effect (not every such curve was filed as active); inconclusive = small, poorly fitted or top-dose-only effect, or another doubt; inactive = no such curve, though single readings can be large or run the other way. A potency beside an inconclusive call is a rough fit, not a confirmed value.

Target: Aldehyde dehydrogenase 1A1 (Homo sapiens) (UniProt P00352)
Sequence of UniProt P00352 (P00352 whole entry, looked up): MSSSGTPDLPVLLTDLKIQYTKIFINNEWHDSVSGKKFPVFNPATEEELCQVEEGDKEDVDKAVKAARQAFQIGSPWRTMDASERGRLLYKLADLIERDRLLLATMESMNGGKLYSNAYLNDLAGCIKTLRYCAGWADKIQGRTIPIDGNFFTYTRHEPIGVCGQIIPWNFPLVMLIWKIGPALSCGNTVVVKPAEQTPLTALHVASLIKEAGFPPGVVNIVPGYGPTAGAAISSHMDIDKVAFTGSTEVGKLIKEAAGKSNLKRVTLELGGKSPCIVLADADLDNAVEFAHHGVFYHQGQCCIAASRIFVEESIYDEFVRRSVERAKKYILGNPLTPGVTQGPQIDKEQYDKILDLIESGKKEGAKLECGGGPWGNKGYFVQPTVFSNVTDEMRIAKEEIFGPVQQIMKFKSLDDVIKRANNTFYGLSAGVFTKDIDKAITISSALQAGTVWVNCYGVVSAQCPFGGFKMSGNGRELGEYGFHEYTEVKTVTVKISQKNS
Assay: qHTS Assay for Inhibitors of Aldehyde Dehydrogenase 1 (ALDH1A1)
Settings: Purified ALDH1A1, NADH fluorescence, propionaldehyde substrate; series mostly up to 75.3 µM
Potency is read from the fitted curve at half-maximal effect; tags tell the direction and shape of the fitted curve.

Potency, active:
COc1cccc(-c2nc(CS(=O)(=O)CC(=O)N3CCN(c4ccccn4)CC3)c(C)o2)c1 31.6 µM
COC(=O)c1ccc(Sc2ccccc2NS(=O)(=O)c2ccc(NC(C)=O)cc2)nc1 11.2 µM
N#Cc1c(NC(=O)c2cc(-n3cnnc3)ccc2Cl)sc2c1CCCC2 12.6 µM
CN(Cc1ccccc1)C(=O)c1nc2ccccn2c1CNCCOc1cccnc1 25.1 µM
O=S(=O)(c1ccc(C2=CSC3=NCCN23)cc1)N1CCOCC1 15.8 µM
O=C(CSCc1c(Cl)cccc1Cl)NN=C1CCCC1 1.58 µM
COc1ccc2c(c1)Cc1sc(NC(=O)c3cccnc3)nc1-2 3.55 µM
CSc1nncc(/C(C)=N\Nc2cccc(C)c2)n1 8.91 µM
CCCCC(=O)Nc1ccc2c3c(cccc13)C(=O)N2CC 7.08 µM
COc1ccc(/C=C2\CN(Cc3ccccc3)C/C(=C\c3ccc(OC)cc3)C2=O)cc1 15.8 µM

Potency, inactive:
CC(C)N1C(=O)c2ccc(C(=O)O)cc2C1=O
CCc1ccc(C(=O)CN2CCSC2=N)cc1
N#Cc1ccccc1Cn1c(=O)n(CCCC(=O)NCc2ccc3c(c2)OCO3)c(=O)c2ccccc21
c1ccc(COc2ccccc2CNc2nn[nH]n2)cc1
COC(=O)[C@@H](NC(=O)O[C@@H]1C(=O)c2cc(Br)ccc2O[C@H]1c1ccc2c(c1)OCO2)C(C)C
CC(C)(C)C(=O)N1CCc2cc(-c3csc(N)n3)ccc21
O=C(/C=C/c1cccc(Cl)c1)NCc1cccs1
CN(C)c1ccc(C(=O)OCC(=O)NC2CCCCCC2)cc1
O=C(c1ccccc1Sc1ccccc1[N+](=O)[O-])N1CCCCC1
Cc1cc(C)n(C(=O)/C(C#N)=C/N(C)C)n1
Cc1cc(C)cc(N(C(=O)c2cccs2)C2C=CS(=O)(=O)C2)c1 (configuration not stated)
CC(=C/c1ccccc1)/C=N/NC(=O)c1cc(C)oc1C
Cn1c(N)cc(-c2ccc(F)cc2)c(C#N)c1=O
CN(C)c1ccc(/C=C/C=N/Nc2nc(N3CCOCC3)nc(N3CCOCC3)n2)cc1
CCNc1nc(NCC)n2c(SCC(=O)c3ccccc3F)nnc2n1
O=S(=O)(c1cnccc1N1CCN(/N=C/c2ccccc2)CC1)N1CCCCC1
Cc1cccc(NC(=O)C(=O)NCc2ccc3c(c2)OCO3)c1C
COc1cccc(C(=O)Nc2cc3c(cc2C(C)=O)OCCO3)c1

Potency, inconclusive:
COc1cc(C2C3=C(CCCC3=O)Nc3[nH]n(-c4ccccc4)c(=O)c32)ccc1OC(C)=O (configuration not stated) 28.2 µM [inhibitor, single point]
COC(=O)Nc1sc2c(c1C(=O)NCc1ccco1)CCCC2 17.8 µM [inhibitor, partial curve]
N#Cc1cccc(NC(=O)COC(=O)c2ccc3c(=O)n4c(nc3c2)CCC4)c1 28.2 µM [inhibitor, single point]
COc1ccc(OC)c(S(=O)(=O)N2CCCCC2C(=O)N2CCN(c3ccccn3)CC2)c1 (configuration not stated) 37.7 µM [inhibitor, single point]
O=C(Nc1nc2n(n1)C(c1ccccc1)C=C(c1ccccc1)N2)c1ccco1 (configuration not stated) 25.1 µM [inhibitor, partial curve]
Cc1ccc(CN2CCSc3ccc(C(=O)NC4CCN(Cc5ccccc5)CC4)cc32)cc1 23.8 µM [inhibitor, partial curve]
CN1CCN(c2nc(C#N)cc(-c3ccccc3)n2)CC1 25.1 µM [inhibitor, single point]
COc1ccc(-n2c(C)nc3sc4c(c3c2=O)CCCC4)cc1 39.8 µM [inhibitor, single point]
CN(C)c1ccc(/C=N/NC(N)=S)cc1[N+](=O)[O-] 2.82 µM [inhibitor, full curve]
c1coc(-c2nc(-c3ccco3)c(-c3ccco3)nc2-c2ccco2)c1 15.8 µM [inhibitor, partial curve]
O=C(O)COc1ccc(/C=N/Nc2nc(Nc3ccccc3)nc(N3CCCCC3)n2)cc1 35.5 µM [inhibitor, single point]
CCOc1ccc(/C(O)=C2/C(=O)C(=O)N(CCN(C)C)C2c2ccccc2)cc1Cl (configuration not stated) 39.8 µM [inhibitor, single point]
CCOC(=O)/C=C/C(=O)OCC(=O)Nc1cccc(Br)c1 15 µM [inhibitor, partial curve, poor fit]
CC(=O)c1cccc(NC(=S)NCCCCc2ccccc2)c1 25.1 µM [inhibitor, single point]
COc1ccc(C2=NN(C(=O)CCC(=O)O)C(c3cccs3)C2)cc1OC (configuration not stated) 23.8 µM [inhibitor, partial curve]
COc1c(-c2ccccc2)oc2c(ccc3occc32)c1=O 35.5 µM [inhibitor, single point]
COc1ccc2c(c1)c(C(=O)CNc1nc(C)cs1)c(C)n2C 39.8 µM [inhibitor, single point]
C=C(C)Cn1c(SCCCO)nc2c1c(=O)[nH]c(=O)n2C 39.8 µM [inhibitor, single point]
COc1ccc(-c2cc(C(F)(F)F)nc(SCC(=O)Nc3cc(C)on3)n2)cc1OC 25.1 µM [inhibitor, partial curve]
CC(=O)c1ccc(-c2nc3c4ccccc4ccn3c2C(C)=O)o1 37.7 µM [inhibitor, single point]
CNC(=O)C1CC(=O)N(Cc2ccccc2)C(=Nc2ccc(OC)cc2)S1 (configuration not stated) 39.8 µM [inhibitor, single point]
CSc1nnc2c(n1)OC(C)N(C(=O)c1ccccc1)c1ccccc1-2 (configuration not stated) 39.8 µM [inhibitor, single point]
CC(C)c1ccc(S(=O)(=O)Nc2ccc(SC(F)F)cc2)cc1 17.8 µM [inhibitor, partial curve]
O=C(CN1CCN(CC(=O)Nc2ccc3c(c2)OCO3)CC1)Nc1ccc(F)cc1 35.5 µM [inhibitor, single point]
Cc1ccc(Cn2c(C)nc3c(c2=O)c2nc4ccccc4nc2n3Cc2ccco2)cc1 14.1 µM [inhibitor, partial curve]
Cn1c(C(=O)NC2CCCC2)cc2c(=O)n(C)c3ccccc3c21 25.1 µM [inhibitor, partial curve]
CCCNC(=O)Cn1c(=O)cnc2ccccc21 31.6 µM [inhibitor, single point]
CCCCN(C(=O)NC(=O)Nc1nc2ccc(OC)cc2s1)S(C)(=O)=O 25.1 µM [inhibitor, partial curve]
CC(C)c1ccc(Nc2nnc(SCC(=O)c3nnc(-c4ccccc4)o3)s2)cc1 1.26 µM [inhibitor, full curve]
COc1ccccc1C1CC(=O)NC(SCC(=O)Nc2ccccc2)=C1C#N (configuration not stated) 20 µM [inhibitor, partial curve]
O=C(O)CCNc1ccc2c(c1)OCCO2 11.2 µM [inhibitor, partial curve]
CCN(CC)c1ccc(/C=C2\CCC(/C=N/NC(=O)c3ccc(=O)n(C)c3)=C2N2CCOCC2)cc1 39.8 µM [inhibitor, single point]
Cc1ccc(Nc2nc(-c3ccc(C)cc3)c(CC(=O)O)s2)cc1 39.8 µM [inhibitor, single point]
COc1ccc(-c2oc3ccccc3c(=O)c2OC(C)=O)cc1 28.2 µM [inhibitor, partial curve]
N#C/C(=C\c1ccncc1)c1nc2c(s1)CCCC2 12.6 µM [inhibitor, partial curve]
CCC(C)(C(=O)NC1CCCCC1)N(Cc1ccco1)C(=O)CNC(=O)c1ccccc1 (configuration not stated) 28.2 µM [inhibitor, single point]
CC1CCCCN1C(=O)NC12CC3CC(CC(C3)C1)C2 (configuration not stated) 25.1 µM [inhibitor, single point]
CCCCCCCCNC(=O)CCNC(=O)c1ccc(C(C)(C)C)cc1 11.2 µM [inhibitor, partial curve]
N=c1oc2cc(O)ccc2cc1C(=O)Nc1nc2ccccc2s1 28.2 µM [inhibitor, partial curve]
N#CCCn1cnc2c(=S)nc[nH]c21 35.5 µM [inhibitor, single point]
Cc1ccnc(SCC(=O)N2CCN(c3ccccc3)CC2)n1 37.7 µM [inhibitor, single point]
COc1cc(C2NC(=O)NC(C)=C2C(=O)NCc2ccccc2)c(Cl)cc1O (configuration not stated) 39.8 µM [inhibitor, single point]
CCOc1ccccc1NC(=O)C(NCC1(N2CCCCC2)CCCCC1)c1ccccc1 (configuration not stated) 12.6 µM [inhibitor, partial curve]
CCOC(=O)N1CCN(C(=O)CSCc2ccc(Cl)cc2)CC1 39.8 µM [inhibitor, partial curve, poor fit]
